Some of the results follow. Interaction screen of human proteins with wild-type SARS-CoV-2 proteins by split-DHFR complementation in yeast, 1 µg/mL methotrexate. Value = fitness of the pair (three or more lineages) minus that of the viral protein without a human partner, on a scale set by negative (0) and fused positive (1) controls, mean of up to three cultures; higher = more likely to interact. Active = false discovery rate below 0.05 (one-sided t-test) in at least one culture. Nearly all pairs are not hits, and differences among them are mostly noise (correlation between cultures about 0.3); most hits were seen in one culture only. Human sequences are the Swiss-Prot entries looked up by gene name; the clone may be another isoform. NSP2 values were corrected by the authors for a growth advantage. Listed are human proteins with a hit and a random twelfth of the others.
Assays:
Test in all cases: yeast fitness gain over the viral ORF with no human partner (scaled fitness); higher = more likely to interact
SARS-CoV-2 NSP10 = target: SARS-CoV-2 NSP10
Experimental: (§1)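 Split mouse DHFR complementation in pooled diploid yeast: human ORFeome clones carry one fragment and viral ORFs the other; barcoded lineages compete in 1 µg/mL methotrexate and fitness is read by barcode sequencing in up to three cultures.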

SARS-CoV-2 ORF3B = target: SARS-CoV-2 ORF3B
Experimental: as §1

SARS-CoV-2 ORF8 = target: SARS-CoV-2 ORF8
Experimental: as §1

SARS-CoV-2 NSP12 = target: SARS-CoV-2 NSP12
Experimental: as §1

SARS-CoV-2 NSP2 = target: SARS-CoV-2 NSP2
Experimental: as §1

SARS-CoV-2 ORF9B = target: SARS-CoV-2 ORF9B
Experimental: as §1

SARS-CoV-2 NSP13 = target: SARS-CoV-2 NSP13
Experimental: as §1

SARS-CoV-2 NSP5 = target: SARS-CoV-2 NSP5
Experimental: as §1

SARS-CoV-2 NSP8 = target: SARS-CoV-2 NSP8
Experimental: as §1

SARS-CoV-2 ORF10 = target: SARS-CoV-2 ORF10
Experimental: as §1

SARS-CoV-2 ORF6 = target: SARS-CoV-2 ORF6
Experimental: as §1

SARS-CoV-2 S = target: SARS-CoV-2 S
Experimental: as §1

SARS-CoV-2 ORF7A = target: SARS-CoV-2 ORF7A
Experimental: as §1

SARS-CoV-2 ORF7B = target: SARS-CoV-2 ORF7B
Experimental: as §1

SARS-CoV-2 NSP6 = target: SARS-CoV-2 NSP6
Experimental: as §1

Measured: yeast fitness gain

B1: BCKDHB, P21953 (protein)
chain: MAVVAAAAGWLLRLRAAGAEGHWRRLPGAGLARGFLHPAATVEDAAQRRQVAHFTFQPDPEPREYGQTQKMNLFQSVTSALDNSLAKDPTAVIFGEDVAFGGVFRCTVGLRDKYGKDRVFNTPLCEQGIVGFGIGIAVTGATAIAEIQFADYIFPAFDQIVNEAAKYRYRSGDLFNCGSLTIRSPWGCVGHGALYHSQSPEAFFAHCPGIKVVIPRSPFQAKGLLLSCIEDKNPCIFFEPKILYRAAAEEVPIEPYNIPLSQAEVIQEGSDVTLVAWGTQVHVIREVASMAKEKLGVSCEVIDLRTIIPWDVDTICKSVIKTGRLLISHEAPLTGGFASEISSTVQEECFLNLEAPISRVCGYDTPFPHIFEPFYIPDKWKCYDALRKMINY
inactive: SARS-CoV-2 NSP10 = -0.225 | SARS-CoV-2 ORF3B -0.0241 | SARS-CoV-2 ORF8 = 0.0972

B2: C1QTNF9B, B2RNN3 (protein)
chain: MRIWWLLLAIEICTGNINSQDTCRQGHPGIPGNPGHNGLPGRDGRDGAKGDKGDAGEPGCPGSPGKDGTSGEKGERGADGKVEAKGIKGDQGSRGSPGKHGPKGLAGPMGEKGLRGETGPQGQKGNKGDVGPTGPEGPRGNIGPLGPTGLPGPMGPIGKPGPKGEAGPTGPQGEPGVRGIRGWKGDRGEKGKIGETLVLPKSAFTVGLTVLSKFPSSDVPIKFDKILYNEFNHYDTAVGKFTCHIAGVYYFTYHITVFSRNVQVSLVKNGVKILHTRDAYVSSEDQASGSIVLQLKLGDEMWLQVTGGERFNGLFADEDDDTTFTGFLLFSSQ
inactive: SARS-CoV-2 NSP10 = -0.0636 | SARS-CoV-2 NSP12 = -0.0612 | SARS-CoV-2 NSP2 = -0.198 | SARS-CoV-2 ORF9B -0.0454

B3: POM121C, A8CG34 (protein)
chain: MSPAAAAAGAGERRRPIASVRDGRGRGCGGPAGAALLGLSLVGLLLYLVPAAAALAWLAVGTTAAWWGLSREPRGSRPLSSFVQKARHRRTLFASPPAKSTANGNLLEPRTLLEGPDPAELLLMGSYLGKPGPPQPAPAPEGQDLRNRPGRRPPARPAPRSTPPSQPTHRVHHFYPSLPTPLLRPSGRPSPRDRGTLPDRFVITPRRRYPIHQTQYSCPGVLPTVCWNGYHKKAVLSPRNSRMVCSPVTVRIAPPDRRFSRSAIPEQIISSTLSSPSSNAPDPCAKETVLSALKEKKKKRTVEEEDQIFLDGQENKRRRHDSSGSGHSAFEPLVASGVPASFVPKPGSLKRGLNSQSSDDHLNKRSRSSSMSSLTGAYTSGIPSSSRNAITSSYSSTRGISQLWKRNGPSSSPFSSPASSRSQTPERPAKKIREEELCHHSSSSTPLAADKESQGEKAADTTPRKKQNSNSQSTPGSSGQRKRKVQLLPSRRGEQLTLPPPPQLGYSITAEDLDLEKKASLQWFNQALEDKSDAASNSVTETPPTTQPSFTFTLPAAATASPPTSLLAPSTNPLLESLKKMQTPPSLPPCPESAGAATTEALSPPKTPSLLPPLGLSQSGPPGLLPSPSFDSKPPTTLLGLIPAPSMVPATDTKAPPTLQAETATKPQATSAPSPAPKQSFLFGTQNTSPSSPAAPAASSASPMFKPIFTAPPKSEKEGLTPPGPSVSATAPSSSSLPTTTSTTAPTFQPVFSSMGPPASVPLPAPFFKQTTTPATAPTTTAPLFTGLASATSAVAPITSASPSTDSASKPAFGFGINSVSSSSVSTTTSTATAASQPFLFGAPQASAASFTPAMGSIFQFGKPPALPTTTTVTTFSQSLPTAVPTATSSSAADFSGFGSTLATSAPATSSQPTLTFSNTSTPTFNIPFGSSAKSPLPSYPGANPQPAFGAAEGQPPGAAKPALTPSFGSSFTFGNSAAPAPATAPTPAPASTIKIVPAHVPTPIQPTFGGATHSAFGLKATASAFGAPASSQPAFGGSTAVFSFGAATSSGFGATTQTASSGSSSSVFGSTTPSPFTFGGSAAPAGSGSFGINVATPGSSATTGAFSFGAGQSGSTATSTPFTGGLGQNALGTTGQSTPFAFNVGSTTESKPVFGGTATPTFGQNTPAPGVGTSGSSLSFGASSAPAQGFVGVGPFGSAAPSFSIGAGSKTPGARQRLQARRQHTRKK
inactive: SARS-CoV-2 NSP10 = -0.0516 | SARS-CoV-2 NSP12 = -0.303 | SARS-CoV-2 NSP13 = -0.123 | SARS-CoV-2 NSP2 = -0.364 | SARS-CoV-2 NSP5 = -0.0143 | SARS-CoV-2 NSP8 = -0.0395 | SARS-CoV-2 ORF10 = -0.159 | SARS-CoV-2 ORF3B -0.132 | SARS-CoV-2 ORF6 = 0.0806 | SARS-CoV-2 ORF8 = -0.124 | SARS-CoV-2 ORF9B 0.0457 | SARS-CoV-2 S -0.0521

B4: TCF7L1, Q9HCS4 (protein)
chain: MPQLGGGGGGGGGGSGGGGGSSAGAAGGGDDLGANDELIPFQDEGGEEQEPSSDSASAQRDLDEVKSSLVNESENQSSSSDSEAERRPQPVRDTFQKPRDYFAEVRRPQDSAFFKGPPYPGYPFLMIPDLSSPYLSNGPLSPGGARTYLQMKWPLLDVPSSATVKDTRSPSPAHLSNKVPVVQHPHHMHPLTPLITYSNDHFSPGSPPTHLSPEIDPKTGIPRPPHPSELSPYYPLSPGAVGQIPHPLGWLVPQQGQPMYSLPPGGFRHPYPALAMNASMSSLVSSRFSPHMVAPAHPGLPTSGIPHPAIVSPIVKQEPAPPSLSPAVSVKSPVTVKKEEEKKPHVKKPLNAFMLYMKEMRAKVVAECTLKESAAINQILGRKWHNLSREEQAKYYELARKERQLHSQLYPTWSARDNYGKKKKRKREKQLSQTQSQQQVQEAEGALASKSKKPCVQYLPPEKPCDSPASSHGSMLDSPATPSAALASPAAPAATHSEQAQPLSLTTKPETRAQLALHSAAFLSAKAAASSSGQMGSQPPLLSRPLPLGSMPTALLASPPSFPATLHAHQALPVLQAQPLSLVTKSAH
inactive: SARS-CoV-2 NSP10 = -0.0674 | SARS-CoV-2 NSP2 = -0.215 | SARS-CoV-2 ORF6 = -0.0625 | SARS-CoV-2 ORF7A -0.182

B5: APLN, Q9ULZ1 (protein)
chain: MNLRLCVQALLLLWLSLTAVCGGSLMPLPDGNGLEDGNVRHLVQPRGSRNGPGPWQGGRRKFRRQRPRLSHKGPMPF
inactive: SARS-CoV-2 NSP10 = 0.00548 | SARS-CoV-2 NSP2 = -0.178 | SARS-CoV-2 ORF7B -0.159 | SARS-CoV-2 ORF9B -9.2e-05

B6: RPH3AL, Q9UNE2 (protein)
chain: MADTIFGSGNDQWVCPNDRQLALRAKLQTGWSVHTYQTEKQRRKQHLSPAEVEAILQVIQRAERLDVLEQQRIGRLVERLETMRRNVMGNGLSQCLLCGEVLGFLGSSSVFCKDCRKKVCTKCGIEASPGQKRPLWLCKICSEQREVWKRSGAWFYKGLPKYILPLKTPGRADDPHFRPLPTEPAEREPRSSETSRIYTWARGRVVSSDSDSDSDLSSSSLEDRLPSTGVRDRKGDKPWKESGGSVEAPRMGFTHPPGHLSGCQSSLASGETGTGSADPPGGPRPGLTRRAPVKDTPGRAPAADAAPAGPSSCLG
inactive: SARS-CoV-2 NSP10 = 0.0138 | SARS-CoV-2 NSP12 = 0.0562 | SARS-CoV-2 NSP13 = -0.0503 | SARS-CoV-2 NSP5 = -0.129 | SARS-CoV-2 NSP6 = 0.178 | SARS-CoV-2 NSP8 = -0.0775 | SARS-CoV-2 ORF3B -0.0397 | SARS-CoV-2 ORF6 = 0.0506 | SARS-CoV-2 ORF7B -0.0179 | SARS-CoV-2 ORF8 = -0.167 | SARS-CoV-2 ORF9B 0.0044

— the supplement of paper PMC11741623
